The text below walks through data of PMC12136788.

This is one part of the list.

The labels stand for the following.
T1: UNK ZnF1-3 (human, UniProt Q9C0B0 31-174)
T1 sequence: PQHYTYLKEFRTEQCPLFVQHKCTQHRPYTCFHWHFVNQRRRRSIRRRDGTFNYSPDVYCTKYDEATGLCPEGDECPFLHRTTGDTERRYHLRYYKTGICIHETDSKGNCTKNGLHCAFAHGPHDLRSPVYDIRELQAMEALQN

B1: chr1:225611761:225611762:-_ENSG00000143815_ENST00000272163|hu_mus|hu_hu_hu_mus_True|18_38 (ssRNA)
RNA: GGGAGUUCUACAGUCCGACGAUCCCAGGCCAUCGGCCUCUGACCACUUCACCCUCAACAAACUUCCUACUUGGCAUUUUCUAAAAUUAGUCUGGCCCAGGUUCCGGGGGAACUCCAGACGGCUCCCGACAGUCACCAGCAGCCCAACAGAGGAUUGAGCAUCA
B2: chr13:100204638:100204639:-_ENSMUSG00000052727_ENSMUST00000064762|mus_hu|motif|central (ssRNA)
RNA: GGGAGUUCUACAGUCCGACGAUCAGGAGUGGGCACCUGGCCAGUGAGAUCCUUUUGGGUGGCCAGUGGCUGCUUCAGAAAGUCGGGAUGUUUGAGCUUUUCCAACCCUUCCAGGAUGUUGUACUGGGUGCUGUUCCCAGGAAACAACAGAGGAUUGAGCAUCA
B3: chr18:24791317:24791318:+_ENSMUSG00000024271_ENSMUST00000025120|mus_mus|motif|central (ssRNA)
RNA: GGGAGUUCUACAGUCCGACGAUCACUUCCAGUGAAGAAGUACUUGUUAUCAGGACUCCAGUCACAAGACCAAAUGAUUCGGCGGUGCACAGAAGUAAUUUUGUUGGUGAAUGCAAAGAGACUAAAAAAUGGAUCAAACUCCGACAACAGAGGAUUGAGCAUCA
B4: 42180163_42180283_7225_3pUTR_ENSMUSG00000061080_ENSMUST00000099761|mouse|control|control (ssRNA)
RNA: GGGAGUUCUACAGUCCGACGAUCUUUUCCUACCCAUGAAAGGCUAUUAGGCUACAGUUCAACUGUUACAUUUCCCAAUAUUACGAACAAGGCAGCCACCUCAGCUAUUUUGGUGCCCUCGCUUUAAUAUGAAAAUGCCUUUCCCAACAGAGGAUUGAGCAUCA
B5: chr10:41618152:41618153:+_ENSMUSG00000038332_ENSMUST00000041438|mus_mus|motif|central (ssRNA)
RNA: GGGAGUUCUACAGUCCGACGAUCUUGCAUCUCAUCCACACUGUGAUUGCCAUUUGUAAUGUCACAGAUGCAGUAGUUACGGACAGAAGGCGGUCUGAAGGUGUGGCCACCAUCGCAAUGAAUCUCUGGACUAAUUCCACAGCCCAACAGAGGAUUGAGCAUCA
B6: chr18:70676519:70676520:-_ENSMUSG00000038425_ENSMUST00000161542|mus_hu|FALSE|FALSE (ssRNA)
RNA: GGGAGUUCUACAGUCCGACGAUCGCGUGAAGUAGUUGAUAAUGAUGGCAUUAAAUAAUAAUCAAUAAGCCCUUUCUUAGCAGUAUUUAGUGCUUUAAGGUUGCAGAAGCACACACUUAGAAGGGUAAGGUGAAAUGGCAUCUUCAACAGAGGAUUGAGCAUCA
B7: chr5:144009550:144009551:+_ENSMUSG00000029587_ENSMUST00000032591|mus_mus|motif|central (ssRNA)
RNA: GGGAGUUCUACAGUCCGACGAUCCAUCCAAAUUUACAGACAAUAAAUCUCUCUAUUGACACAUCAAAAUAAAUGAUUUCCGGAAUUCCACUUCUGAAUUGCAUAACUCCUACAGAGUGUAAUGGGGCACCAGGCUGUCCUGUUCAACAGAGGAUUGAGCAUCA
B8: chr17:24832259:24832260:-_ENSMUSG00000040888_ENSMUST00000046839|mus_hu|FALSE|FALSE (ssRNA)
RNA: GGGAGUUCUACAGUCCGACGAUCUCUUAGGUCUUCAGCACACUCCUCACAGGGGUAAAACUUAGAAAAUAAAUGUAUGAACUGGGCCAUGUCUUGCUGCUGUUCUGGGGUGGGCAGGUCGGGGUAGUAGGCGGCCAGGGUGUGCAACAGAGGAUUGAGCAUCA
B9: 79826794_79826914_537_CDS_ENSMUSG00000043881_ENSMUST00000061222|mouse|control|control (ssRNA)
RNA: GGGAGUUCUACAGUCCGACGAUCCACCAAGACCUCGAAGGACUCGGCAUCCACGUCGUGGAUCGUCACGCUGGCCUGCUGGCUCUCGUACAUGCCCCCCGUGAACAUGCUCUUGAAGUAGGGGCAAGCGGCCGCCAGCACGUUCAACAGAGGAUUGAGCAUCA
B10: chr18:56819859:56819860:+_ENSG00000166562_ENST00000588875|hu_mus|hu_hu_hu_mus_True|88_88 (ssRNA)
RNA: GGGAGUUCUACAGUCCGACGAUCAACCUUGAUUACUCUGUGAACUAUUGGAAUGUCUCUUCCUUCAACCUUAAAAACAACUAUUUCACCAGCUCUGAUGGGGUCCUCCCGGAAAUUCGUGAGGAACAGCAGAUCUCCUCUGUGCAACAGAGGAUUGAGCAUCA
B11: chr12:48362563:48362564:+_ENSG00000134291_ENST00000256686|hu_hu|hu_hu_hu_mus_False|28_48 (ssRNA)
RNA: GGGAGUUCUACAGUCCGACGAUCUCCGUCAAGCCCUUCGAUAGACCCUUGCGGGGGAAACUGUAAUCACUUUGUAUGGGGAAGGAAAAAAAAAGCCAAAAACUUUCUUUCUUUCUUGGGUGGGGUGAGGCGGGAGGGGGAGGUCAACAGAGGAUUGAGCAUCA
B12: chr10:59467614:59467615:+_ENSMUSG00000044475_ENSMUST00000050516|mus_hu|FALSE|FALSE (ssRNA)
RNA: GGGAGUUCUACAGUCCGACGAUCGAAGUCCUCUUCAUCUUCUUCAUGUUGAUAGGUCUGUUCUUGGACUGGAUUCUUCCUGUAAUUCCGGCCAUCAAUUCUUAUAAGCUGUGGACGCAGAACUUCCAUGACACUUUCUCCAAACAACAGAGGAUUGAGCAUCA
B13: 153399267_153405588_643_CDS_ENSG00000157827_ENST00000288670|human|control|control (ssRNA)
RNA: GGGAGUUCUACAGUCCGACGAUCAAUUUCCAGUUCUCUUAGCACUUGUGUAGAUUCUUGAACACGCCGUCUGAAUUUCUUCCUGGUUACAGCUGGAUCCAGAUAGCCUUUGAGCUUUUGAAUGUAUGUAUGGGGAGGAUUCUUCAACAGAGGAUUGAGCAUCA
B14: chr8:106942660:106942661:-_ENSMUSG00000035770_ENSMUST00000041769|mus_mus|FALSE|FALSE (ssRNA)
RNA: GGGAGUUCUACAGUCCGACGAUCCUUUUGUAUCAAGGUUUCAAAAUCACACUAUUAGGCAGUGUCUUUGCAAGAAUUCCUAGUUUCUGAGGUCAUUCACUUUGCCCUGGCUGCUACGGAGAUCAGUUGACCCUCCAUCAUGGUCAACAGAGGAUUGAGCAUCA
B15: chr5:152452566:152452567:-_ENSMUSG00000033970_ENSMUST00000038131|mus_hu|FALSE|FALSE (ssRNA)
RNA: GGGAGUUCUACAGUCCGACGAUCUUCACGUAGAAUACACAUAAUUCUUGUCUUUUUUCCAGCACCUGAUGGUCCGUACACUAACAGAUGAGGAAAGUCACCACACUGCACCAGGUUCCGCAGCUGGGCCGCCUGCUCCUUGUGCAACAGAGGAUUGAGCAUCA
B16: chr2:135883765:135883766:+_ENSG00000115839_ENST00000442034|hu_mus|motif|central (ssRNA)
RNA: GGGAGUUCUACAGUCCGACGAUCAGAAUAAACAUCAUUAUCUACAAUGAUCCCUUCUGUCAAAUGAGGCCACGUUGUUGCGGAAUGGAGUUCACUGAUAGGAUCUUCACAGGCACCAAAUGGCAACUUGCCGAACUCCAGGCCCAACAGAGGAUUGAGCAUCA
B17: chr11:100452292:100452293:-_ENSMUSG00000014195_ENSMUST00000014339|perfect_dup|FALSE|FALSE (ssRNA)
RNA: GGGAGUUCUACAGUCCGACGAUCCAUUUGUUUUUAUAUUGUUGGGGUCUAUCCCCAGGGCUUCUGUGUACAGUUCAUAUGCUAGUUUGUAAUUUCCUUCCUUAAAUGCUUUAUUCCCAUCUUCUUUCUUUGCUUUGAGUGCUUCAACAGAGGAUUGAGCAUCA
B18: 83126042_83126162_1279_3pUTR_ENSMUSG00000058881_ENSMUST00000071233|mouse|control|control (ssRNA)
RNA: GGGAGUUCUACAGUCCGACGAUCGUCCUCUGAGUCCCCCUCCUCAGCCGGGGCUCGAAUCCGGCUGGCUUCAACUUUACGGUGUAUGGCGUUAUGGGCGUUCAAGCUGUCCAGGUUUGUAAACAGGUUCCCGCACUUUGUGCACAACAGAGGAUUGAGCAUCA
B19: 52727232_52727430_1307_CDS_ENSG00000163938_ENST00000418458|human|control|control (ssRNA)
RNA: GGGAGUUCUACAGUCCGACGAUCUGAGGCACCUGUCCACUCAGACCACAGCAGUUUGGCAGCACCUUCAACAUUUGGGAUUCCACCUUUUUGGUGCAUACCUCUUCUCUGAGCAAGCACAGUAAAAAAUUCCAGAGAAUUCCUCAACAGAGGAUUGAGCAUCA
B20: chr1:80263381:80263382:-_ENSMUSG00000004364_ENSMUST00000163119|mus_mus|motif|central (ssRNA)
RNA: GGGAGUUCUACAGUCCGACGAUCAAUUUUGCAUCUCUUUUGCCAUUUUUGCUACCCAACUUACACAAUGCGCAAAGUGCGGAUAAGCAACACUACAGAAACACAUUUACAUCAACACUGAAGACCUGGGGAAAUGAAAUCCAACAACAGAGGAUUGAGCAUCA
B21: chr1:225611761:225611762:-_ENSG00000143815_ENST00000272163|hu_mus|hu_hu_hu_mus_True|1_48 (ssRNA)
RNA: GGGAGUUCUACAGUCCGACGAUCCCAGGCCAUCGGCCUCUGACCACUUCACCCUCAACAAACUUCCUACUUGGCAUUUUCUAAAAUUAACCUGCGCGCGCUCCGGCGGGAACUCCAGCCACUCCAGGACAGUCACCCGCACAGCAACAGAGGAUUGAGCAUCA
B22: chr5:37310712:37310713:-_ENSG00000113569_ENST00000381843|hu_mus|motif|central (ssRNA)
RNA: GGGAGUUCUACAGUCCGACGAUCACAAACUGCAUCGUCUGUGCUAUACAGAAGCGGACAGGUGUCCUGCAGAUGUAAGCGGAUGCCGUCUACGGCGGCGUUGUCUCUGAUGUAGCAGUUGAUAAGAGAAGCAAUUAAUGCUCCCAACAGAGGAUUGAGCAUCA

In the experiment the target is T1, UNK ZnF1-3. Kind of experiment: nsRBNS (natural sequence RNA bind-n-seq); RBNS binding buffer (assumed for nsRBNS): 25 mM Tris pH 7.5, 150 mM KCl, 3 mM MgCl2, 0.01% Triton X-100, 500 ug/ml BSA, 20 U/ml SUPERase-In, 4 C; UNK is unkempt and MSI1 is Musashi-1; names of the RNAs are library labels; protein concentration not given here; high values mean tight binding.
Take B1: the binding signal amounted to 1.45 enrichment R. For the molecule B2, the binding signal is 1.04 enrichment R. For B3, the binding signal came to 1.57 enrichment R.

As to B4, the binding signal was 0.716 enrichment R. B5 showed a binding signal of 0.88 enrichment R. Then B6, with 1.54 enrichment R; and B7, with 1.02 enrichment R. In turn, B8 registered a binding signal of 1.56 enrichment R. As to B9, the binding signal was found to be 0.534 enrichment R. In the case of B10, the binding signal is 0.697 enrichment R.

With B11, the binding signal came out at 1.54 enrichment R.

Take B12: the binding signal is 0.492 enrichment R. B13: the binding signal was 0.616 enrichment R.

B14: the binding signal was 0.691 enrichment R.

In turn, B15 showed a binding signal of 0.825 enrichment R.

B16: the binding signal amounted to 1.27 enrichment R. The molecule B17 showed a binding signal of 0.338 enrichment R. B18 had a binding signal of 1.01 enrichment R. Then B19, with 1.28 enrichment R; and B20, with 1.35 enrichment R; and B21, with 1.4 enrichment R. Regarding B22, the binding signal amounted to 0.509 enrichment R.
